# According to PubChem BioAssay AID686970 (National Center for Advancing Translational Sciences (NCATS), 2013):
# The whole screen tested about 360,000 compounds, of which about 6,000 (1.7%) were called active. Inconclusive means that the source gave no clear call. Such entries were picked first, then a sample of the others. The call rests on the fitted dose curve; in most records, active means well fitted cell-killing curve with a large enough effect; inconclusive means small, poorly fitted or top-dose-only effect, or effect the other way; inactive means flat fitted curve, though single readings scatter. Potencies of inconclusive entries are left out as doubtful fits.
# Experiment: qHTS for induction of synthetic lethality in tumor cells producing 2HG: qHTS for the HT-1080-NT fibrosarcoma cell line;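 further: NT is the 2HG producing partner of a matched IDH1 knockdown line; nearly all actives have a fitted effect of over 55% in size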;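 on activity, negative = less viability: 0% = DMSO-treated cells and -100% = media-only wells without cells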
# Conditions: HT-1080-NT fibrosarcoma viability, CellTiter-Glo ATP luminescence, 48 h; activity, negative = less viability: at 46.1 µM (top of the series) unless noted
# How it was run: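 Read-out is CellTiter-Glo luminescence after 10 minutes at room temperature, following 48 hours' compound treatment of HT-1080-NT cells (750 cells/well, RPMI, 5% FBS, 37 degrees C).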
# Potency means the concentration at half of the fitted maximal effect; tags describe the fitted curve by direction and shape.
Compound,"activity, negative = less viability",Potency
Cc1ccccc1-n1ncc2c1CC(C)(C)CC2NC(=O)c1ccncc1 (configuration not stated),inactive: -0.186%,
COC(=O)c1c(NC(=O)CCS(=O)(=O)c2ccccc2)sc2c1CCN(C)C2,inactive: 15%,
O=C(Nc1ccc(Oc2ccccc2)cc1)c1ccc2sc([C@H]3C[C@H](O)[C@@H](CO)O3)nc2c1,,active: 7.31 µM
COCCn1c(=NC(=O)c2cc(-c3cccs3)nc3ccccc23)sc2cc(S(N)(=O)=O)ccc21,,"inconclusive [cytotoxic, partial curve]"
O=C(O)C1Cc2ccccc2CN1C(=O)COc1ccc(Cl)cc1 (configuration not stated),,"inconclusive [rising, single point]"
N#Cc1c(N2CCCCC2)nc(N)c2c(N)nc(SCC(=O)O)cc12,,"inconclusive [cytotoxic, single point]"
CC(C)c1ccc(Nc2nc(Cl)nc(NCc3ccco3)n2)cc1,,"inconclusive [cytotoxic, single point]"
Cc1nc2ccccc2c(=O)n1/N=C/c1ccccc1O,,"inconclusive [cytotoxic, single point]"
CCc1ccc(NC(=O)CSc2nc(NS(=O)(=O)c3ccccc3)cc(=O)[nH]2)cc1,,"inconclusive [cytotoxic, partial curve]"
CC(=O)n1cc(N(C(=O)CCl)c2ccc([N+](=O)[O-])cc2)c2ccccc21,,active: 23.1 µM
COc1cc(CCCN2C(=O)C(=O)NC[C@@H]2c2ccccc2)cc(OC)c1OC,inactive: 16.6%,
c1ccc(Nc2nnc(-c3cccc4ccccc34)o2)cc1,,"inconclusive [cytotoxic, partial curve]"
Cc1ccccc1C(=O)NC1CCN(C(=O)NCc2ccccc2)CC1,inactive: 6.4%,
O=C(NCC1CCCO1)c1cc2c([nH]c3ccccc32)c(-c2ccc(F)cc2)n1 (configuration not stated),,"inconclusive [cytotoxic, single point]"
C=CCOC(=O)C1=C(C)NC(C)=C(C(=O)OCC=C)C1/C=C/c1ccccc1,,"inconclusive [cytotoxic, single point]"
N/C(CCS(=O)(=O)c1ccc(Cl)cc1)=N\OC(=O)c1ccccc1C(F)(F)F,,"inconclusive [cytotoxic, single point]"
C#CCOCCOCCOCCNc1nc(N2CCN(C(=O)CCCCCCCCCCNC(=O)Cn3cc(C[C@@H](C)O)nn3)CC2)nc(N2CCN(C(=O)CCCCCCCCCCNC(=O)[C@H](CCCN=C(N)N)n3cc(C[C@@H](C)CC)nn3)CC2)n1,,"inconclusive [cytotoxic, single point]"
COc1ccc(C(=O)/C=C/c2cc(OC)c(O)c(OC)c2)c(F)c1,,"inconclusive [cytotoxic, single point]"
Cc1ccccc1C(=O)c1cccn1CC(=O)NCCN1CCN(c2cccc(C)c2C)CC1,,active: 23.1 µM
CCOc1ccc(-c2cc(N3C(=O)Nc4ccccc4N3O)n[nH]2)cc1,,active: 16.4 µM
CCN(CCC(=O)Nc1ccc(Br)c(C)c1)Cc1ccccc1,,active: 14.6 µM
CCCCCCC(=O)N1CCC(c2nc3c(nnn3Cc3ccccc3Cl)c(=O)[nH]2)CC1,,active: 12.6 µM
CC[C@]12c3[nH]c4ccc(Cl)cc4c3CCN1C(=O)[C@@H](CC(=O)NCC13CC4CC(CC(C4)C1)C3)C[C@@H]2C(=O)N1CCN(C(=O)C2CC2)CC1,,active: 16.4 µM

Compound,"activity, negative = less viability",Potency
NC(=O)c1ccc(-c2ccc(N3C(c4ccsc4)=Cc4ccc(F)cc4C3CC(=O)c3ccco3)cc2)cc1 (configuration not stated),,"inconclusive [cytotoxic, single point]"
COc1ccccc1C(=O)n1nc(-c2ccccc2)nc1NCc1ccco1,inactive: 8.83%,
CC1(C)CC(N2CCCC2)=CC(=[N+]2CCCC2)C1,,"inconclusive [cytotoxic, partial curve]"
c1ccc(-c2cn(-c3ccccc3)c3[n+]2CCCS3)cc1,,"inconclusive [cytotoxic, partial curve]"
N#CCC(=O)N/N=C/c1cn(Cc2cccc3ccccc23)c2ccccc12,,"inconclusive [cytotoxic, single point]"
CCOC(=O)c1ccc(N2CN(CCc3ccccc3)CNC2=S)cc1,inactive: 10.1%,
CN(C)CCCNc1nc2cc(-c3ccsc3)sc2c(=O)n1C,,"inconclusive [cytotoxic, single point]"
c1cncc(-c2nnc(-c3cccnc3)nn2)c1,,"inconclusive [cytotoxic, single point]"
CCCCN(CC)CCNC(=O)c1cc2c(=O)n(C)c3ccccc3c2s1,,"inconclusive [cytotoxic, partial curve]"
CCOc1ccc2[nH]c(=O)c(CN(Cc3cccs3)Cc3nnnn3C(C)(C)C)cc2c1,,"inconclusive [cytotoxic, single point]"
COc1ccc(Nc2nc(NCc3ccco3)nc(N/N=C/c3ccccc3F)n2)cc1,inactive: -5.62%,
COc1cc(NC(=O)C2CC(c3ccccc3Cl)=NO2)cc(OC)c1OC (configuration not stated),,"inconclusive [cytotoxic, single point]"
CCSc1ccc(-c2cc(NC=O)c3ncc(-c4cccc(C(=O)NCCN(C)C)c4)n3c2)cc1,,active: 18.4 µM
Cc1cc(Oc2cc(N)cc([N+](=O)[O-])c2)ccc1Cl,,"inconclusive [cytotoxic, single point]"
CN(C)c1nccc(N(Cc2ccccc2)Cc2ccccc2)c1C#N,inactive: -18.3%,
Oc1c(N=NC(=S)Nc2ccccc2F)c2ccccc2n1Cc1ccccc1Cl,,active: 13 µM
CCc1nnc(NS(=O)(=O)c2ccc(NC(=S)NC(=O)/C=C/c3ccc(C(C)C)cc3)cc2)s1,,"inconclusive [cytotoxic, single point]"
CCOC(=O)c1cnc(-c2ccccc2)nc1Oc1ccc(OC)cc1,inactive: 1.98%,
COC(=O)CSC1=C(C#N)C(c2cccc(F)c2)CC(=O)N1 (configuration not stated),,active: 14.6 µM
Cc1ccc2cccnc2c1NC(=S)NC(=O)c1ccccc1,,active: 11.2 µM
O=C1NC[C@H](c2ccccc2)OC(=O)[C@@H](Cc2ccc(F)cc2)CC/C=C/C[C@H]1CC(=O)N(CCO)Cc1ccccc1,,active: 23.1 µM
COc1ccc(N2CCN(C(=O)COC(=O)c3oc4ccccc4c3C)CC2)cc1,inactive: 3.24%,
O=C(NC(=S)Nc1ccccc1O)c1ccc(-c2ccc(Cl)cc2)o1,,"inconclusive [cytotoxic, single point]"

Compound,"activity, negative = less viability",Potency
Cc1ccc(S(=O)(=O)N2CCCCC2CCNC(=O)C(=O)NCc2ccco2)cc1 (configuration not stated),,"inconclusive [cytotoxic, partial curve]"
Cc1ccc(OCCN2CCN(C(=O)CCC(=O)Nc3nnc(CC(C)C)s3)CC2)cc1,,"inconclusive [cytotoxic, full curve]"
Cc1ccc(OCC(=O)Nc2c(C)ccc3nsnc23)cc1,inactive: -3.97%,
O=C(NCC(=O)N1CC(O)CC1C(=O)N1CCCC1C(=O)OCc1ccccc1)OCc1ccccc1 (configuration not stated),inactive: -21.1%,
CC[C@@H]1CCC[C@@H](O)[C@@H](C)C(=O)O[C@H](C)[C@@H](C)C/C=C(C)/C(OC)=C\C(=O)N(C)C([C@@H](C)CC)C(=O)N(C)[C@@H](C(C)C)C(=O)N(C)[C@@H](COC)C(=O)N2CCC[C@H]2C(=O)N(C)[C@@H](C(C)C)C(=O)N2CCC[C@H]2C(=O)O1 (some centres not stated),,"inconclusive [cytotoxic, partial curve, poor fit]"
Cc1cc(C(=O)CSc2cccc[n+]2[O-])c(C)n1-c1ccc(OC(F)F)cc1,inactive: -8.73%,
CC(=O)c1ccc(-c2cnc3c(NC=O)cc(-c4cnn(C)c4)cn23)cc1,,"inconclusive [cytotoxic, single point]"
CCOc1cc(C2C(C#N)=C(N)OC(C)=C2C(C)=O)c(Br)c(Br)c1OC(C)C (configuration not stated),,active: 7.31 µM
OC(c1ccccc1)c1nc(-c2cccc(F)c2)cs1 (configuration not stated),,"inconclusive [cytotoxic, single point]"
CN(C)S(=O)(=O)c1cccc(NC(=O)COC(=O)C2(c3ccccc3F)CCCC2)c1,,"inconclusive [cytotoxic, single point]"
COc1cc(CNC2CCCC2)cc(Cl)c1OCc1ccccc1Cl,,"inconclusive [cytotoxic, single point]"
CCN1c2ccccc2N(C)C1(C)c1ccccc1 (configuration not stated),,"inconclusive [cytotoxic, partial curve]"
CCOc1ccccc1NC(=O)CN1C(=O)C(C)SC(C)C1=O (configuration not stated),inactive: 13.2%,
CCN(CC)Cc1c(C(=O)N/N=C/c2cccnc2)nnn1-c1nonc1N,,"inconclusive [rising, single point]"
O=c1[nH][nH]c(C(F)(F)F)c1C=NCc1cccc(Cl)c1,inactive: 11.3%,
CN(C)c1ccc(N/C(=N\S(=O)(=O)c2cccs2)c2ccccc2)cc1,inactive: -4.44%,
C=CCNC(=O)CN1C(=O)C2C3c4ccccc4C(c4ccccc43)C2C1=O (configuration not stated),inactive: 0%,
CC(C)OC(=O)c1ccc(NC(=O)Cn2c(-c3nonc3N)nc3ccccc32)cc1,inconclusive: -31.3% [cytotoxic],
Cc1ccc(NS(=O)(=O)c2cc(C(=O)NCCSc3ccc(C)cc3)ccc2C)cc1,,"inconclusive [cytotoxic, single point]"
Cc1cc(C)n(CC(O)Cn2c3ccc(Cl)cc3c3cc(Cl)ccc32)c(=O)n1 (configuration not stated),,"inconclusive [cytotoxic, single point]"
CCc1nc(C)cn1S(=O)(=O)c1cc([N+](=O)[O-])ccc1Cl,,active: 4.11 µM
